Data as given in the supplement of paper PMC12645437, “Orthogonal IMiD-Degron Pairs Induce Selective Protein Degradation in Cells” (ACS Chemical Biology, 2025).
The list shows a part of the results.

B1: Q9UKT9 (peptide)
chain: FMCPICGAVFTQKGNLLRHIKL
B2: Q9UKT9 (peptide)
chain: FICNICGAFFTQKGNLLRHIKL
B3: Q9UKT9 (peptide)
chain: FHCDVCGARFTQKGNLLRHIKL
B4: Q9UKT9 (peptide)
chain: LTCNQCGFDCTQKGNLLRHIKL
B5: Q9UKT9 (peptide)
chain: LSCEICGFGCTQKGNLLRHIKL
B6: Q9UKT9 (peptide)
chain: FNCNQCGAPFTQKGNLLRHIKL
B7: Q9UKT9 (peptide)
chain: LHCPICGFGCTQKGNLLRHIKL
B8: Q9UKT9 (peptide)
chain: FTCSVCGHPFTQKGNLLRHIKL
B9: Q9UKT9 (peptide)
chain: FECNQCGAAFTQKGNLLRHIKL
B10: Q9UKT9 (peptide)
chain: FDCEICGRDFTQKGNLLRHIKL
B11: Q9UKT9 (peptide)
chain: FYCPVCGAPFTQKGNLLRHIKL
B12: Q9UKT9 (peptide)
chain: LFCEICGFNCTQKGNLLRHIKL
B13: Q9UKT9 (peptide)
chain: FCCEVCGALFTQKGNLLRHIKL
B14: Q9UKT9 (peptide)
chain: FFCNQCGHGFTQKGNLLRHIKL
B15: Q9UKT9 (peptide)
chain: LDCEICGFWCTQKGNLLRHIKL
B16: Q9UKT9 (peptide)
chain: FGCNICGALFTQKGNLLRHIKL
B17: Q9UKT9 (peptide)
chain: FWCNVCGALFTQKGNLLRHIKL
B18: Q9UKT9 (peptide)
chain: FYCDVCGAPFTQKGNLLRHIKL
B19: Q9UKT9 (peptide)
chain: FCCNQCGALFTQKGNLLRHIKL
B20: Q9UKT9 (peptide)
chain: FGCNVCGATFTQKGNLLRHIKL
B21: Q9UKT9 (peptide)
chain: FCCEQCGAGFTQKGNLLRHIKL
B22: Q9UKT9 (peptide)
chain: LNCNQCGFKCTQKGNLLRHIKL
B23: Q9UKT9 (peptide)
chain: FTCEICGASFTQKGNLLRHIKL
B24: Q9UKT9 (peptide)
chain: FICEVCGAAFTQKGNLLRHIKL
B25: Q9UKT9 (peptide)
chain: FGCDVCGAKFTQKGNLLRHIKL
B26: Q9UKT9 (peptide)
chain: FLCEVCGAIFTQKGNLLRHIKL
B27: Q9UKT9 (peptide)
chain: FTCEICGHRFTQKGNLLRHIKL
B28: Q9UKT9 (peptide)
chain: FVCNICGACFTQKGNLLRHIKL
B29: Q9UKT9 (peptide)
chain: FCCDQCGAEFTQKGNLLRHIKL
B30: Q9UKT9 (peptide)
chain: FVCPICGHSFTQKGNLLRHIKL
B31: Q9UKT9 (peptide)
chain: FCCNQCGHWFTQKGNLLRHIKL
B32: Q9UKT9 (peptide)
chain: FWCNQCGANFTQKGNLLRHIKL

What follows are sequences tested against no compound (DMSO) (assay: log2 fold change of degron read counts, EGFP-low vs EGFP+ sorted cells; higher = lower degron-EGFP level without compound (poor expression or instability)). Conditions: compound: DMSO control; 18 h.
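Further: jurkat cells carrying a lentiviral library of mutant zinc finger degrons fused to EGFP plus mCherry, mCherry+ cells FACS sorted, degron abundance counted by next-generation sequencing.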

Sequence | log2 fold change of degron read counts
B1 | -0.17
B2 | -0.263
B3 | -2.37
B4 | -0.787
B5 | 0.343
B6 | -0.156
B7 | 0.9
B8 | -0.321
B9 | -1.27
B10 | -0.809
B11 | 0.302
B12 | 0.411
B13 | -0.838
B14 | 0.756
B15 | 1.81
B16 | 0.203

Sequence | log2 fold change of degron read counts
B17 | 1.03
B18 | -0.258
B19 | -0.828
B20 | -1.55
B21 | -1.11
B22 | 0.695
B23 | -1.66
B24 | -2.14
B25 | -1.17
B26 | -0.712
B27 | -1.78
B28 | -0.217
B29 | -2.94
B30 | 0.0164
B31 | 0.819
B32 | 0.392
